Measurements taken from paper doi:10.1101/2023.12.13.571598 (bioRxiv, 2023).

How the values were obtained:
[1] = biological target: the molecule itself; assay: ThT fluorescence aggregation assay + other: negative-stain TEM
[2] = biological target: the molecule itself; assay: ThT fluorescence aggregation assay

B1: WT 4R tauRD ([…]) (domain or fragment)
chain: not shown
B1: binds [1].

B2: P301S tauRD_QK (domain or fragment)
chain: not shown
B2: binds [1].

B3: P301S 4R tauRD ([…]) (domain or fragment)
chain: not shown
B3: binds [2].

B4: P301S tauRD_EL_QK (domain or fragment)
chain: not shown
B4: binds [1].
